PubChem BioAssay AID504339 (National Center for Advancing Translational Sciences (NCATS), 2011)
Several values for one entry are separate records, joined by “and”; a condition that tells them apart may be missing. Equal entries are not always repeated. The campaign covered roughly 390,000 compounds. About 17,000 (4.4%) were called active. The inconclusive results got no clear call from the source; some entries with a clear call stand among them for comparison. The call rests on the fitted dose curve; in most records, active means well fitted inhibition curve with a large enough effect; inconclusive means small, poorly fitted or top-dose-only effect; inactive means no such curve, though single readings can be large or run the other way. Potencies beside an inconclusive call are fits to weak or partial responses and may not hold up.

target: Lysine-specific demethylase 4A (Homo sapiens) (UniProt O75164); assay: qHTS Assay for Inhibitors of JMJD2A-Tudor Domain; settings: AlphaScreen JMJD2A-Tudor / H3K4me3 peptide binding; activity change, negative = inhibition: at 114 µM (top of the series); further: nearly all actives have a fitted effect of over 50% in size
On the % scale 0 is the no-effect control and ±100 the full control effect; potency means the concentration at half of the fitted maximal effect; tags describe the fitted curve by direction and shape.

Sequence of UniProt O75164 (O75164 whole entry, looked up, the tested form may be a part): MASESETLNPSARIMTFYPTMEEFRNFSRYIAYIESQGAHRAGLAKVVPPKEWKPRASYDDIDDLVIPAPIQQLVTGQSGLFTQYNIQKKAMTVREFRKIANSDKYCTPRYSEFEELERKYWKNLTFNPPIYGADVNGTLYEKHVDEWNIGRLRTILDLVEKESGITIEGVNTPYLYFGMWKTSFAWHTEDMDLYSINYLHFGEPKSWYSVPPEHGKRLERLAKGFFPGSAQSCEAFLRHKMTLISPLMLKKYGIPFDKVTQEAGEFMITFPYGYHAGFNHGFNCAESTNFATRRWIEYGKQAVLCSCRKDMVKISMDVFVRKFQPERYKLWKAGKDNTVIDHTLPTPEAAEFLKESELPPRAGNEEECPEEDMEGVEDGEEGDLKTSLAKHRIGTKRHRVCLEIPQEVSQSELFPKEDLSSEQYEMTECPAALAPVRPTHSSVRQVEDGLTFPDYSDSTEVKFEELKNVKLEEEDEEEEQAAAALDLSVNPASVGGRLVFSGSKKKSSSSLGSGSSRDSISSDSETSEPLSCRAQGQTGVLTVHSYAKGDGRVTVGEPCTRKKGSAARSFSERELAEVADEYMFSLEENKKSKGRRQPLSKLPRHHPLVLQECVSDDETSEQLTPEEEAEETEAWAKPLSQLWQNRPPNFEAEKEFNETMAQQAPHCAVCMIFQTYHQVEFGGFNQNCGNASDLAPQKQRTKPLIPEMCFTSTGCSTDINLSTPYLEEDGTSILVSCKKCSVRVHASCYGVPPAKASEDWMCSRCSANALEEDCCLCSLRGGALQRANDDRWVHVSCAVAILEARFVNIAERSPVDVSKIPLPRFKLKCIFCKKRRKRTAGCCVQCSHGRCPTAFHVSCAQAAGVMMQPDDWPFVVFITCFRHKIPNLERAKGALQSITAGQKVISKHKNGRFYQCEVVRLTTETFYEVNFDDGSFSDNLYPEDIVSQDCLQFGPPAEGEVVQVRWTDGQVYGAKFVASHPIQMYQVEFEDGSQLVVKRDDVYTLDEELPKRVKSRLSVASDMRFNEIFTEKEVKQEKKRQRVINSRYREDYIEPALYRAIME

Potency, inconclusive:
CCn1c(CNc2ccc(OC)cc2)nnc1SCC(=O)c1ccc(OC)cc1 100 µM [inhibitor, single point]
C/C(=N\NC(=S)NCc1ccccc1)c1ccco1 100 µM [inhibitor, partial curve]
O=C(NCc1ccncc1)C(=O)Nc1nccs1 22.4 µM [inhibitor, full curve, poor fit]
COc1ccc(-n2cc(C(=O)Nc3cc(F)ccc3F)c3ccccc3c2=O)cc1 63.1 µM [inhibitor, partial curve]
O=S1(=O)[C@H]2C[C@@H]3C=C[C@@]2(CN1Cc1ccc(F)cc1)O3 25.1 µM [inhibitor, full curve]
CCNC(=S)NN=C1c2ccccc2-c2ccccc21 0.708 µM [inhibitor, full curve, poor fit]
Cc1ccc(S(=O)(=O)c2cnc(-c3ccccc3)nc2N2CCN(C)CC2)cc1 31.6 µM [inhibitor, full curve, poor fit]
COc1ccccc1CNC(=O)C(NS(=O)(=O)c1ccc2c(c1)OCCO2)C(C)C (stereo unspecified) 25.1 µM [inhibitor, partial curve]
CC(C)N(C(=O)C[n+]1ccc(/C=N/O)cc1)C(C)C 31.6 µM [inhibitor, single point]
CC1=CC2=NC(=O)/C(=C\c3cccn3CCOc3ccc(C)c(C)c3)C(=N)N2O1 25.1 µM [inhibitor, partial curve]
CCOc1ccc(C(=O)NC(=S)Nc2ccc(N3CCCCC3)cc2)cc1[N+](=O)[O-] 89.1 µM [inhibitor, partial curve]
O=C(/C=C/c1ccc(Cl)cc1)N1CCN(c2c(Cl)cccc2[N+](=O)[O-])CC1 28.2 µM [inhibitor, partial curve]
O=[N+]([O-])c1ccc2nc(-c3ccccc3)n(OCc3ccc(Cl)cc3)c2c1 100 µM [inhibitor, single point]
c1cnc2nc3c4ccccc4c4ccccc4c3nc2c1 10 µM [inhibitor, full curve, poor fit]
O=C(CC1Oc2ccccc2NC1=O)NCc1ccccc1 (stereo unspecified) 25.1 µM [inhibitor, full curve, poor fit]
Cc1oc(-c2ccc(Cl)cc2)nc1CN1CCCC(C(=O)NC2CC2)C1 (stereo unspecified) 15.8 µM [inhibitor, full curve, poor fit]
O=C(Nc1nnc(SCc2ccc(Cl)cc2)s1)c1ccco1 3.55 µM [inhibitor, single point]
Cc1csc(N2CCCC2c2nc3cc(Cl)c(N4CCCCC4)cc3n2CCOCCO)n1 (stereo unspecified) 44.7 µM [inhibitor, partial curve, poor fit]
COCC(C)N=C1NN=C(c2cc(C)n(Cc3ccccc3Cl)c2C)CS1 (stereo unspecified) 56.2 µM [inhibitor, partial curve, poor fit]
Cc1c([N+](=O)[O-])cc(C(=O)Nc2ccc(Cc3ccncc3)cc2)cc1[N+](=O)[O-] 11.2 µM [inhibitor, partial curve]
COC(=O)c1cccc(NC(=S)NCc2ccco2)c1 50.1 µM [inhibitor, partial curve]
O=C1CCc2cc(S(=O)(=O)N3CCC(C(=O)NCCC4=CCCCC4)CC3)ccc2N1 39.8 µM [inhibitor, partial curve]
O=C(CC1(O)C(=O)N(Cc2cccc3ccccc23)c2ccccc21)c1cccnc1 (stereo unspecified) 50.1 µM [inhibitor, partial curve]
CCc1ccc(Cn2ncc3c(C(=O)O)cc(C)nc32)cc1 20 µM [inhibitor, full curve, poor fit]
CN(C)c1ccc(C(CNC(=O)c2cccc(C(F)(F)F)c2)N2CCCC2)cc1 (stereo unspecified) 44.7 µM [inhibitor, partial curve]
COc1ccccc1Nc1ncc(-c2cccs2)s1 63.1 µM [inhibitor, partial curve, poor fit]
CCn1cc(C(=O)O)c(=O)c2cc(F)c(N3CCN(S(=O)(=O)c4ccc5c(c4)OCCO5)CC3)cc21 56.2 µM [inhibitor, partial curve]
Cc1cc(S(=O)(=O)N2CCN(c3ccc(F)cc3)CC2)ccc1-n1cnnn1 1.26 µM [inhibitor, full curve]
O=S(=O)(c1ccccc1)c1nc(-c2ccc(Cl)cc2)oc1NCCCN1CCOCC1 63.1 µM [inhibitor, partial curve, poor fit]
CCOc1ccc(C(=O)c2cc([N+](=O)[O-])ccc2N2CCOCC2)cc1 70.8 µM [inhibitor, single point]
COc1c(O)c(O)c2oc(-c3ccccc3)cc(=O)c2c1OC 50.1 µM [inhibitor, partial curve]
CCNC(=O)/C(C#N)=C/c1c(N(Cc2ccccc2)Cc2ccccc2)nc2ccccn2c1=O 3.16 µM [inhibitor, full curve, poor fit]
CCOc1ccc(NC(=O)CN(C)C(=O)c2ccc3[nH]c4c(c3c2)CC(C)CC4)cc1OCC (stereo unspecified) 22.4 µM [inhibitor, full curve]
COc1ccc(NC(=O)N2CCN(S(=O)(=O)c3ccc4c(ccn4C)c3)CC2)cc1OC 28.2 µM [inhibitor, full curve]
N#Cc1nc(COc2ccc(F)cc2)oc1N1CCN(Cc2ccccc2)CC1 39.8 µM [inhibitor, partial curve]
CN1/C(=C\C(=O)CSc2nnc(NCc3ccccc3)s2)C(C)(C)c2ccccc21 12.6 µM [inhibitor, full curve, poor fit]
O=C1CS/C(=N\NC(=O)c2ccccc2)N1 0.708 µM [inhibitor, full curve, poor fit]
CN(C)CCCNC(=O)C[C@H]1C[C@H](C(=O)N2CCOCC2)[C@@]2(CCC3CCCC3)c3[nH]c4cc(-c5ccco5)ccc4c3CCN2C1=O 50.1 µM [inhibitor, partial curve]
NS(=O)(=O)c1ccc(CNC(=O)CCCSc2ccccc2)cc1 31.6 µM [inhibitor, single point]
Cc1cccc(-c2nc(CN3CCCC(C(=O)NCc4ccc(Cl)cc4)C3)c(C)o2)c1 (stereo unspecified) 22.4 µM [inhibitor, full curve, poor fit]
COc1ccc(-c2csc(NNC3=NCCCCC3)n2)cc1 3.55 µM [inhibitor, single point]
Cc1cccc(C2CC(c3ccc(Br)cc3)Nc3nc(N)nn32)c1 (stereo unspecified) 50.1 µM [inhibitor, partial curve]

Potency, active:
CC(C)(c1cc(Br)c(O)c(Br)c1)c1cc(Br)c(O)c(Br)c1 89.1 µM
CN1CCN(C2=C(Cl)C(=O)C(c3cnc(N4CCCCC4)s3)=C(Cl)C2=O)CC1 4.47 µM
CCOC(=O)C1CCN(Cc2ccc3ccccc3c2)CC1 56.2 µM
CCN(CC)CCC(c1ccc(N(C)C)cc1)c1c(OC)cc(OC)c2c(-c3ccccc3)cc(=O)oc12 (stereo unspecified) 28.2 µM and 22.4 µM
O=C(N/N=C/c1cc(Cl)cc([N+](=O)[O-])c1O)C(O)(c1ccccc1)c1ccccc1 50.1 µM
CC(NCCc1ccc(S(N)(=O)=O)cc1)C(=O)NCCc1ccc(F)cc1 (stereo unspecified) 25.1 µM
O=c1ccsn1Cc1ccccc1 39.8 µM
CC(=O)Nc1nc(C)c(-c2csc(Nc3ccc(O)cc3)n2)s1 50.1 µM
O=C(COC(=O)CCN1C(=O)/C(=C\C=C\c2ccccc2)SC1=S)Nc1cc(F)ccc1F 39.8 µM
C=CCn1c(-c2csc3ccccc23)n[nH]c1=S 17.8 µM
O=[N+]([O-])c1cccc(CN2CCN(c3ncccn3)CC2)c1 2.24 µM
CCN(CC)C(=O)CC(c1ccc(N(C)C)cc1)c1c(OC)cc(OC)c2ccc(=O)oc12 (stereo unspecified) 44.7 µM
O=C(NCc1ccco1)C1CCN(Cc2ccc(F)cc2)CC1 50.1 µM

Potency, inactive:
COC(=O)c1ccc(NC(=O)Cn2c(-c3nonc3N)nc3ccccc32)cc1

Activity change, negative = inhibition, inactive:
CC1(C)C[C@H](O)[C@]2(CO)CC[C@]3(C)C(=CCC4[C@@]5(C)CC[C@H](O)C(C)(C)C5CC[C@]43C)[C@@H]2C1 (stereo partly specified) -13.6%
CN(C(=O)c1cccc(NC(=O)Cc2ccc(NC(=O)C3CCCN(S(=O)(=O)c4cccc([N+](=O)[O-])c4)C3)cc2)c1)C1CCCC1 (stereo unspecified) -31.7%
CC(CCc1ccccc1)NS(=O)(=O)c1ccccc1 (stereo unspecified) -1.74%
CCc1ccc(NC(=O)c2ccc(NC(=O)C3CCCO3)cc2)cc1 (stereo unspecified) -0.702%
CCOCCCNC(=O)CC1Oc2ccc(C)cc2NC1=O (stereo unspecified) 2.11%
CC(=O)N1CCN(c2ccc(S(=O)(=O)N3CCCCC3)cc2[N+](=O)[O-])CC1 -9.59%
COc1ccc(Cl)cc1Nc1cc(C)nc2nc(-c3ccccc3C)nn12 -11%
O=C(NCCc1csc(-c2cccc(F)c2)n1)c1ccccc1C(F)(F)F 0%
Cc1cc(C)c(C#N)c(SCC(=O)C2CC2)n1 -5.11%
CC1(c2nnc(-c3ccccc3)o2)CC(c2ccccc2)=NO1 (stereo unspecified) -1.43%
